Source: patent US5883107A, “Arginine mimic derivatives as enzyme inhibitors” (Corvas International, Inc., priority 1995, dated 1999)

How the values were obtained:
citrated rat plasma = tested on: citrated rat plasma
Experimental: The control clotting times (0 inhibitor) for rat and human plasma were seconds and 28 seconds, respectively. The concentration of Isomer B which caused a doubling of the control clotting time in rat and human plasma was 39 micromolar and 21 micromolar, respectively. The data represents the mean of two independent determinations.
Fresh frozen citrated pooled normal human plasma was obtained from George King Biomedical, Overland Park, KA. Pooled normal rat plasma was prepared from citrated whole blood collected from anesthetized rats using standard procedures. The plasma was flash frozen and stored at -80° C. until use. Measurements APTT was made using the Coag-A-Mate RA4 automated coagulometer (GenOklahoiagnostics, Organon Technica, Oklahoma City, Okla.) using the Automated APTT reagent (Organon Technica, Durham, N.C.) as the initiator of clotting according to the manufacturers instructions. The assay was conducted by making a series of dilution's of the test compounds in rapidly thawed plasma followed by adding 200 microliters to the wells of the assay carousel.

CCCC(CCC)C(=O)N[C@@H](CC(=O)OC)C(=O)N1CCC[C@H]1C(=O)N[C@H](C=O)CC1CCCN(C(=N)N)C1 (single isomer, unassigned) [Isomer 11B, alpha-N-(propylpentanoyl)-aspartyl(beta-methyl ester)-prolyl-3-[3-piperidyl-(N-guanidino)]-L-alaninal]
concentration which caused a doubling of the control clotting time (APTT) (citrated human plasma): 21 µM
concentration which caused a doubling of the control clotting time (APTT) (citrated rat plasma): 39 µM
